Assay results: the supplement of paper PMC11417369
± gives the standard deviation of the averaged measurements. This is one part of the list.

tested on: PfAP2-EXP AP2 domain (GST-tagged); test: gcPBM binding intensity (ln(normalized median fluorescence intensity)); higher = stronger DNA binding
How it was run: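 GST-tagged P. falciparum DNA-binding domains produced in E. coli were incubated for 1 h on an Agilent 4 × 180k array of primer-extended double-stranded 36-bp intergenic genomic probes with negative controls. Binding intensity is the highest Masliner-normalised natural-log median intensity across replicate spots of either probe orientation, with bound protein detected by Alexa488 anti-GST antibody at 488 nm.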

Row | Sequence | gcPBM binding intensity (ln)
1 | ATATATATATTAACAATACACACGTGTATACCTTAT [CACACA_site2217] | 9.39 ± 0.16
2 | ATGTTTTGTAAAATGATTAAATATTAAGATTCAATA [CACACA_negctrl_site1743] | 8.1 ± 0.49
3 | CATCATAGCATTCCTCGTACAAATATAAACATATCA [XGTACX_site2711] | 8.69 ± 0.39
4 | TAGTAAATAACAAAAGGAAAAATTAATGAGGCAAAA [TGCATGCA_negctrl_site526] | 8.78 ± 0.46
5 | CATATACACGAACACACACACATATATATATATATA [CACACA_site4437] | 10.3 ± 0.39
6 | CTTAGAGTATTTAAATGTACACGTTTGTATATGTAT [XGTACX_site1767] | 8.63 ± 0.47
7 | ATAAATAAATACATATGTACATATATATATATATAT [XGTACX_site7145] | 10.2 ± 0.35
8 | ATATATATATTAAGGGGTACGTAAAAAATTGGGAAG [XGTACX_site7322] | 9.38 ± 0.18
9 | TCAGTTAATGTATATGTACACACGGGGTGTATATAT [CACACA_site9103] | 8.71 ± 0.49
10 | AAATTATATCCCCTTTGTACTTACAGATCTTTATAC [XGTACX_site8163] | 8.77 ± 0.51
11 | ACAAAAAAAAAAAAAAAAAGAAGAATATATCTATAT [CACACA_negctrl_site759] | 8.24 ± 0.47
12 | TATCATACAATATTCACACAAATAAATTGACATATT [CACACA_site5891] | 8.31 ± 0.31
13 | AAAAAGGAAATAATAACACACATTAGTAATTATAAA [CACACA_site7573] | 8.48 ± 0.38
14 | CACAGACACGGACACACACACACAAAAAAAAAAAGA [CACACA_site4436] | 8.44 ± 0.57
15 | TATTTTCTTTAATTAATTATTGGTCTGAATGGGGTT [CACACA_negctrl_site418] | 8.7 ± 0.75
16 | TATTAAAAAAATATTTGTACTTAAAATTTATTATAT [XGTACX_site1467] | 8.07 ± 0.3
17 | AATTAATAAATATTATATGTTAATATTTTTTTTGTT [CACACA_negctrl_site1692] | 7.99 ± 0.4
18 | AGAGGAGTAAAACAAAACAAAGAGAAATAAACACAC [XGTACX_negctrl_site386] | 9.35 ± 0.47
19 | TTTCATATCTTGTCAAGTACATATTTTTATTTTCTT [XGTACX_site2160] | 8.63 ± 0.41
20 | AAAAAATATAATAATTGTACACATGCACACACAAAT [XGTACX_site1563] | 9.06 ± 0.18
21 | ACTTAATATCGGTACACACACAAGATAAGAATTATG [CACACA_site894] | 8.74 ± 0.4
22 | TTTTTATAAAAATGAACACACACATATATATATATA [CACACA_site9160] | 10.2 ± 0.4

Row | Sequence | gcPBM binding intensity (ln)
23 | AATAACACTATTTAACGTACAAAAAAAAAAAAGAAA [XGTACX_site3721] | 8.67 ± 0.31
24 | ATATATCTTTATATAGTGCATTAAATATGTTGTAAT [GTGCAC_site9953] | 8.53 ± 0.057
25 | ATACTAAAAATGAATGTACACATATATATATATATA [TGCATGCA_negctrl_site209] | 10.2 ± 0.33
26 | AAAAAAAATAAAAATAGTACCCAAAAAATTATGAAT [XGTACX_site6641] | 8.61 ± 0.39
27 | TATAATAAAATATTTTGTACGTATATTTTAATATTT [XGTACX_site2582] | 8.32 ± 0.45
28 | TTTTTAAAAAATAAGAAAAAATAAATATATTACAAA [XGTACX_negctrl_site191] | 8.46 ± 0.46
29 | ATGTTACACAGACACACACACATAAAAAAACAAAAA [CACACA_site7516] | 8.62 ± 0.63
30 | CAGCATGGTATACCTATAAAATATATATACTAACAT [TGCATGCA_negctrl_site51] | 9.01 ± 0.49
31 | CACATACATATATATACACACAAATATATATACGCA [CACACA_site791] | 8.47 ± 0.54
32 | GGCATATATACATATGGTACACATTTATTAATACCG [XGTACX_site2710] | 8.54 ± 0.38
33 | GATGTGTATATTAAATGTACGAACAGTTGAGGCGAA [XGTACX_site7853] | 9.15 ± 0.38
34 | AGGATATAAAGTTGTGCATGTCAAGTGCACCGTATT [TGCATGCA_site451] | 9.1
35 | AGAAAAATCTAAATTCGTACATAACGTTTAAACATA [XGTACX_site2511] | 8.36 ± 0.43
36 | GTTTTATTCCATTATTGTACTTAATATAAAGAAACT [XGTACX_site3054] | 8.8 ± 0.45
37 | ATAATAATATGTGGGTGTACATATACACATATATAT [XGTACX_site4356] | 8.91 ± 0.33
38 | ATAAATTGAAGTAAATTTGACCTTTTTTTTTTTTTT [GTGCAC_negctrl_site354] | 8.31 ± 0.27
39 | AGAACATGCAAACATGCACACAGAAAAAAAAAATAT [CACACA_site8442] | 8.97 ± 0.3
40 | TTTATTGATAATATATATATATATATATATATATAT [GTGCAC_negctrl_site552] | 10.2 ± 0.48
41 | AATATCTTAGTGGATACACACATATAAATGGGTATT [CACACA_site4426] | 8.34 ± 0.35
42 | AAAAAATTAAAAAAAAAAAAATCATGAAAAAAACAA [CACACA_negctrl_site1673] | 8.41 ± 0.57
43 | TCATATGTTAAACACACACACACACCGAAAAAAACA [CACACA_site9067] | 8.78 ± 0.54
44 | CTTATATTAAGTATTACACACATATATATAAATGCA [CACACA_site4581] | 8.6 ± 0.61

Row | Sequence | gcPBM binding intensity (ln)
45 | CCTAAATAAATGGACACACACATATATATATATATA [CACACA_site1439] | 10.2 ± 0.32
46 | TTTTACGTAATATTTATACACACGAACCTTATTAAT [CACACA_site2300] | 8.58 ± 0.4
47 | TATATATATATAAGAAGTACAGAAAATTAGAAAAAA [XGTACX_site8773] | 9.82 ± 0.32
48 | TAGAAATAAGAAAAATGTACATATAATATTGAAAGT [XGTACX_site3043] | 9.17 ± 0.35
49 | AGTCTATAGTAATTTACACACAAAAAAATATCAGGA [CACACA_site7620] | 8.65 ± 0.44
50 | AGTAGTCTGGAGAAAAGTACATAGTATCTGGTAGCT [XGTACX_site2027] | 8.72 ± 0.7
51 | GCACATATGAATATAATACACACTTGTATTATTAAT [CACACA_site1841] | 8.39 ± 0.33
52 | ATTTTATATACAAAATGTACATATTTATTATATATG [XGTACX_site6732] | 8.65 ± 0.64
53 | AAGGATACGCAAAAATGTACAAAATGCTTATAAATA [XGTACX_site984] | 8.71 ± 0.25
54 | GGAGCTATCTCCTGCACACACAATTTTTTTTTTTTT [CACACA_site2240] | 8.41 ± 0.45
55 | ATTAAAATCATATACACACCCATATATATATATATA [CACACA_site5050] | 10.1 ± 0.34
56 | GAATAAATACCGGTGTGTACTTAAATCATTCACGAA [XGTACX_site3174] | 8.7 ± 0.36
57 | ATACATATCTACCTATGTACATAATACAACAAAGAT [XGTACX_site323] | 8.86 ± 0.42
58 | TGAGTATATAAATACACACACATATATATATTTTAA [CACACA_site5130] | 8.26 ± 0.41
59 | TTTTATTTTTAAGGATGTACTCAATTGTTTATATAC [XGTACX_site3965] | 8.6 ± 0.36
60 | TTTTTTTTTAATAAAATTATAATAAATATGAAATTA [XGTACX_negctrl_site369] | 7.96 ± 0.52
61 | ATATATATATATATATGTACACATATATATACTCAC [XGTACX_site8043] | 10 ± 0.4
62 | TGTATATTTTAGTGATGTACTAATATTATTACTAAT [XGTACX_site3952] | 8.29 ± 0.28
63 | ATATGTTTATTTATTTGTACTTATCATATAATAACA [XGTACX_site5486] | 8.54 ± 0.35
64 | TTAGAAAGAATGTATTGTACATATATATTATATATA [XGTACX_site7045] | 8.3 ± 0.32
65 | TGCTTAGCACACTATCTACTTCCTTTGTTTCATAAA [GTGCAC_negctrl_site495] | 8.88 ± 0.45
66 | TTCATTTATATAATCACACATTTTATCATCTATGTT [CACACA_site4327] | 8.66 ± 0.45

Row | Sequence | gcPBM binding intensity (ln)
67 | GGTTCTAAAAAGGGAAGTACATGGAAAAATATAAAT [XGTACX_site4639] | 8.86 ± 0.54
68 | GCATGCACGGAAAAAAGTACATATATAAATTTGGTT [XGTACX_site3393] | 9.2 ± 0.23
69 | ATCGTTATATAATGTTGTACTTGTTATATATATATA [XGTACX_site7582] | 9.88 ± 0.5
70 | AAAATTATTATGAAAAGTACAAATATGTAAACATAC [XGTACX_site5517] | 8.45 ± 0.24
71 | TTTTTTAAATATATTTGTACATATGAAATAAAGATA [XGTACX_site3841] | 8.61 ± 0.37
72 | AAAATTTAGCAAAGGTGTACAAAAGATAATTAGAGT [XGTACX_site3467] | 9.24 ± 0.42
73 | AATATATTTTGATATGAACAATTAATAATTTCAAAT [GTGCAC_negctrl_site170] | 8.28 ± 0.42
74 | TTTTTCACATCTATAAATCATCTAATCAATATTTTT [GTGCAC_negctrl_site444] | 8.3 ± 0.42
75 | ATTCTAATTAGTAAAGTGCAGATAAAATGATGCCCT [GTGCAC_site9578] | 8.43 ± 0.25
76 | AAATTTTAATTAGGAACACACATATATATATATATA [CACACA_site5673] | 10.2 ± 0.24
77 | TTATATATAGATCACACACACACACCGGTTTTAAAA [CACACA_site4220] | 8.82 ± 0.49
78 | TAAATTTATGGACACACACACATATATATATATATA [CACACA_site4620] | 10.2 ± 0.47
79 | TCTTTTTTAATATAATATATTTTTATTAAGTAAATC [TGCATGCA_negctrl_site408] | 8.05 ± 0.23
80 | TATTTATCTATATATTGTACTTATTAGTCTTAATGT [XGTACX_site4242] | 8.54 ± 0.66
81 | ATTTTTTATGAAAATAAACACACGATTTATTATATA [CACACA_site1312] | 8.14 ± 0.33
82 | TTTTCAGAAAAGAGAAACTTTATTTTTCACAACCGA [TGCATGCA_negctrl_site389] | 8.21 ± 0.38
83 | TGTAGTCATTAGTCAAATTAGAATTAAATATATATT [GTGCAC_negctrl_site643] | 8.21 ± 0.5
84 | TAAAAAATTATTAAACGTACGAGACTTTTTATCAGT [XGTACX_site2219] | 8.46 ± 0.34
85 | CATAAAAATGGATACACACACATAATATATTTATAT [CACACA_site7669] | 8.61 ± 0.4
86 | ACAATATATTCATATTGTACATAAAATAAGGCTAAC [XGTACX_site6728] | 8.88 ± 0.28
87 | TATATTTAAATTCTTTCAAATCATGTTGTAATTTTT [CACACA_negctrl_site1349] | 8.39 ± 0.47
